# “And” between values parts separate entries of the source, which are not always exact repeats. Identical values can stand only once. Screen size: about 270,000 compounds; about 5,800 (2.1%) were called active. Inconclusive means that the source gave no clear call. Such entries were picked first, then a sample of the others. The call rests on the fitted dose curve; in most records, active means well fitted inhibition curve with a large enough effect; inconclusive means small, poorly fitted or top-dose-only effect; inactive means flat fitted curve, though single readings scatter. Potencies of inconclusive entries are doubtful fits and often do not repeat.
# Target: Microtubule-associated protein tau (Homo sapiens) (UniProt P10636)
# Experiment: qHTS for Inhibitors of Tau Fibril Formation, Thioflavin T Binding; further: nearly all actives have a fitted effect of over 55% in size
# Details: recombinant tau K18 P301L, heparin-induced fibrillization, ThT fluorescence; series mostly up to 57.4 µM; activity, negative = inhibition: at the top concentration
# Summary of the method: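 ThT emission at 510 nm, taken 1 hr after adding 30 uM dye, quantifies aggregates formed when 20 uM heparin acts on human tau K18 P301L for 6 hr at 37 C.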
# On the % scale 0 is the no-effect control and ±100 the full control effect; potency means the concentration at half of the fitted maximal effect; tags describe the fitted curve by direction and shape.
# Sequence of UniProt P10636 (P10636 whole entry, looked up): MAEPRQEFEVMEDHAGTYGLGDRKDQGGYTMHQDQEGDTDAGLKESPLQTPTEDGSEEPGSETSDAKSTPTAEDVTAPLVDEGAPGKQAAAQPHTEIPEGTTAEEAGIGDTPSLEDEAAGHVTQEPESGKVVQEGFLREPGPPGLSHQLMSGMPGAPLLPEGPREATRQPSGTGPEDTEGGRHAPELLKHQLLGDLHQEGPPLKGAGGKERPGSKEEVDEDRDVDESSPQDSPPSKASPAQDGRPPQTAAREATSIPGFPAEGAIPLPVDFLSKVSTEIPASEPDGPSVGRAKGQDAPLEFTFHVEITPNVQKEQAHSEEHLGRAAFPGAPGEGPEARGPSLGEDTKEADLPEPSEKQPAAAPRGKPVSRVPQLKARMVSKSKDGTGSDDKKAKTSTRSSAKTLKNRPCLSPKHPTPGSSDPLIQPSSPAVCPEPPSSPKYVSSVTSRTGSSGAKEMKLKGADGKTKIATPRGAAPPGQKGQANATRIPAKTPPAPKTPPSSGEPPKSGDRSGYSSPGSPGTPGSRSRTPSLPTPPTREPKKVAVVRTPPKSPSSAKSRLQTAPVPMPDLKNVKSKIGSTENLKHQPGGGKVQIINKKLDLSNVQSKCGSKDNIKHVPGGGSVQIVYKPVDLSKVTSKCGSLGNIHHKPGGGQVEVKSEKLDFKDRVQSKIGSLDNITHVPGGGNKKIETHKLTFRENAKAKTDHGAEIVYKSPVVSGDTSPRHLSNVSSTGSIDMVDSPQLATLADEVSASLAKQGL
SMILES,Potency,"activity, negative = inhibition"
O=C(OC1Cc2c(O)cc(O)cc2OC1c1cc(O)c(O)c(O)c1)c1cc(O)c(O)c(O)c1 (stereo not drawn),active: 6.31 µM,–
NCCCNCCCCNCCCNC(=O)Cc1ccc(O)cc1,–,inactive: -13.3% [at 11.5 µM]
COc1ccc(C2=C(C(C)=O)Sc3nnc(-c4ccc(Cl)cc4)n3N2C(C)=O)cc1OC,"inconclusive: 10 µM [inhibitor, partial curve, poor fit]",–
O=C(Cc1ccc(Cl)c(Cl)c1)N1CCCCC1CN1CCCC1 (stereo not drawn),inactive,–
O=C(COc1cccc(Cl)c1)N1CCN(CCc2ccncc2)CC1,–,inactive: -5.32%
Cc1ccc(Cn2cccc(C(=O)Nc3cc([N+](=O)[O-])ccc3C)c2=O)cc1,"inconclusive: 0.631 µM [inhibitor, full curve]",–
CN1C(=O)C(=Cc2coc3ccccc3c2=O)C(=O)N(C)C1=O,"inconclusive: 20 µM [inhibitor, partial curve, poor fit]",–
C=C1C(O)C2OC3(CCC(/C=C/C(C)C4CC(C)=CC5(OC(CC(C)(O)C(=O)O)CCC5O)O4)O3)CCC2OC1C(O)CC(C)C1OC2(CCCCO2)CCC1C (stereo not drawn),–,inactive: -6.44% [at 2.31 µM]
CCOC(=O)C1=C(N)Oc2ccccc2C12C(=O)N(CC(=O)OC)C(CC(=O)OC)=C2C(=O)OC (stereo not drawn),"inconclusive: 31.6 µM [inhibitor, partial curve]",–
Cc1cccn2c(=O)c3cc(C(=O)N4CCC5(CC4)OCCO5)n(C)c3nc12,"inconclusive: 0.0251 µM [inhibitor, full curve, poor fit]",–
Cc1ccc(CC2C(=O)N(C)C(=O)N(C)C2=O)s1,"inconclusive: 25.1 µM [inhibitor, single point]",–
Cc1ccc(-n2c(O)c(C=Nc3ccccc3N)c(=O)[nH]c2=O)cc1C,"inconclusive: 12.6 µM [inhibitor, partial curve]",–
CN(C)C(=O)Oc1cccc2c(OC(=O)N(C)C)cccc12,–,inactive: -8.86%
Nc1c(C(=O)Nc2cccc(F)c2)sc2nc(-c3cccs3)ccc12,"inconclusive: 0.794 µM [inhibitor, full curve, poor fit]",–
CCCCCn1c(N)c(C(=O)NCCN2CCOCC2)c2nc3ccccc3nc21,"inconclusive: 25.1 µM [inhibitor, single point]",–
O=C1CN=C(c2ccccc2)c2oc3ccc(Br)cc3c2N1,"inconclusive: 20 µM [inhibitor, partial curve]",–
CCOC(=O)N1CCN(c2ccc(Cl)c(Cl)c2)CC1,"inconclusive: 4.47 µM [inhibitor, full curve]",–
O=C(N/N=C/c1c(O)n(-c2ccccc2)c(=O)[nH]c1=O)c1ccncc1,"inconclusive: 39.8 µM [inhibitor, single point]",–
C=C(CC1(C(C)NP(=O)(c2ccccc2)c2ccccc2)CC1)c1ccccc1 (stereo not drawn),"inconclusive: 1.58 µM [inhibitor, full curve]",–
CCn1c(O)c(C(c2ccccn2)c2c(O)n(CC)c(=S)[nH]c2=O)c(=O)[nH]c1=S,"inconclusive: 14.1 µM [inhibitor, partial curve]",–
CNC(=S)N(C)CCc1cc2c(c(OC)c1C=C1C(=O)NC(=O)NC1=O)OCO2,"inconclusive: 2.82 µM [inhibitor, full curve]",–
C=CCC1C(=O)NC(=S)NC1=O,–,inactive: -7.25%

SMILES,Potency,"activity, negative = inhibition"
O=c1[nH]c(=O)n(CCC2=CCCCC2)c(O)c1C=NCCN1CCNCC1,"inconclusive: 7.94 µM [inhibitor, full curve]",–
CCOc1ccc(CCNC(=O)c2ccc(-n3c(C)cc4c3CCCC4)cc2)cc1OCC,"inconclusive: 15.8 µM [inhibitor, partial curve]",–
O=C1NC(=O)N(c2ccccc2)C(=O)/C1=C/c1ccc2c(c1)Cc1ccccc1-2,"inconclusive: 10 µM [inhibitor, partial curve]",–
N[C@@H](Cn1cc(I)c(=O)[nH]c1=O)C(=O)O,inactive,–
Cc1ccc(C)c(OCC(=O)N2CCN(Cc3ccc4c(c3)OCO4)CC2)c1,"inconclusive: 15.8 µM [inhibitor, single point]",–
NCC(CP(=O)(O)O)c1ccc(Cl)cc1 (stereo not drawn),"inactive and inconclusive: 8.91 µM [inhibitor, single point]",–
CCN1C(=O)NC(=O)/C(=C\c2ccc(N3CCOCC3)cc2OC)C1=O,"inconclusive: 4.47 µM [inhibitor, full curve]",–
Cc1cccc(-n2c(/C=C/c3cn(C)c4ccccc34)nc3ccccc3c2=O)c1,"inconclusive: 7.08 µM [inhibitor, partial curve]",–
Cc1cc(S(=O)(=O)NC(C)C)ccc1OCC(=O)N1CCN(Cc2ccc3c(c2)OCO3)CC1,–,inactive: -0.374%
Cc1cccc(CS(=O)(=O)Cc2ccc(C(=O)N3CCC4(CC3)OCCO4)o2)c1,–,inactive: -4.35%
CN1C(=O)C(=Cc2ccccc2OCCOc2ccc([N+](=O)[O-])cc2)C(=O)N(C)C1=O,active: 10 µM,–
CCOC(=O)C1CCCN(c2ccc([N+](=O)[O-])c3nonc23)C1 (stereo not drawn),"inconclusive: 14.1 µM [inhibitor, partial curve]",–
CCC(C)N1C(=O)NC(=O)C2(Cc3c(ccc4ccccc34)N(C)C2)C1=O (stereo not drawn),active: 15.8 µM,–
O=c1c(C=Nc2cccnc2Cl)c(O)n(CCCCl)c(=O)n1C1CCCCC1,–,inactive: -13.1%
C=CCNC(=S)/N=C/c1c(O)[nH]c(=O)[nH]c1=O,"inconclusive: 14.1 µM [inhibitor, partial curve]",–
O=C1NC(=O)N(Cc2ccc(F)cc2)C(=O)/C1=C\c1ccc(N2CCCC2)cc1,active: 25.1 µM,–
O=[N+]([O-])c1ccc(NCCO)c2ncccc12,"inconclusive: 15.8 µM [inhibitor, partial curve]",–
CC(=O)c1ccc(-c2ccccc2)cc1,"inconclusive: 3.55 µM [inhibitor, full curve]",–
Cc1ccc(F)cc1NC(=O)c1ccc(Cn2nc(N3CCN(c4ccccc4)CC3)ccc2=O)o1,"inconclusive: 14.1 µM [inhibitor, partial curve]",–
O=C(c1ccccc1)N1CCC2(CC1)OCCO2,–,inactive: -3.27%
CCCN1CCc2cccc3c2C1Cc1ccc(O)c(O)c1-3 (stereo not drawn),active: 17.8 µM and active: 14.1 µM,–

# — PubChem BioAssay AID1460 (National Center for Advancing Translational Sciences (NCATS), 2008)
